# The supplement of paper PMC10126150
# Sequences with one replicate were seen in a single cluster, so their values are uncertain.
# System: ATP
# Assay: switch fluorescence ratio, 500 uM ATP over buffer (Cy3 cluster intensity, sum of 5 cycles each) (fold (ratio)); higher = stronger signal-on switching upon ATP binding; sequences stand for … in TCGTCGGCAGCGTCAGATGTGTATAAGAGACAGTTTTTTTTTTTTTTTTTTTTTTTTT…TC
# Settings: aptamer strand: ATP DNA aptamer (quencher-CACCTGGGGGAGTATTGCGGAGGAAGG + anchor), 100 nM annealed; ATP concentration: 500 uM; one replicate
# Procedure, shortened: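 The fluorescence ratio divides summed target-cycle Cy3 intensity by summed buffer-cycle Cy3 intensity for each cluster and is averaged per switch-domain sequence. Cy3-labelled switching-strand clusters on a modified Illumina MiSeq flow-cell were annealed to 100 nM quencher-labelled ATP aptamer, then imaged in selection buffer and again after 15 min with 500 uM ATP at 22 °C. Five such cycles were run, with NaOH stripping and re-annealing between them, and clusters outside 100-1000 RFU were excluded.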
# 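Note: ATP exposure 15 min at 22 °C before imaging.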
row,Sequence,switch fluorescence ratio
1,GTTTTTGCAT,1.03
2,TAAAAAAGCG,1.01
3,TAAAAATAGA,0.984
4,TAAAAATCTG,1.07
5,TAAAACAATA,1.02
6,TAAAACACTA,1.05
7,TAAAAGAA,0.948
8,TAAAAGAGTG,1.03
9,TAAAAGCCCG,1.03
10,TAAAAGCCGT,0.998
11,TAAAAGGAGA,1.03
12,TAAAAGGCTT,0.952
13,TAAAATCTAT,0.985
14,TAAACACACT,1.2
15,TAAACACCAG,1.02
16,TAAACAGCCC,1.05
17,TAAACCCCAG,1.23
18,TAAACGGA,1.01
19,TAAACTGGGG,1.02
20,TAAAGACGCT,1
21,TAAAGAGAAG,1.16
22,TAAAGAGTCT,1.03
23,TAAAGAGTTG,1.01
24,TAAAGCCGTT,1.07
25,TAAAGGTCCG,1.1
26,TAAAGTAAAA,0.919

row,Sequence,switch fluorescence ratio
1,TAAAGTCCTC,1.02
2,TAAAGTGAGA,1
3,TAAAGTGGTA,0.967
4,TAAATAGGA,1.01
5,TAAATCCAAA,1
6,TAAATCCACG,1.1
7,TAAATGCGAA,0.97
8,TAAATGGTGT,0.982
9,TAAATTCTAT,0.997
10,TAACAACCCA,1.07
11,TAACAAGCTA,1.01
12,TAACACCTG,1.04
13,TAACAGTGTA,1.1
14,TAACATATGA,1.02
15,TAACATCGTG,1
16,TAACCACAT,1.03
17,TAACCGATTC,1.12
18,TAACCGGTGT,1.04
19,TAACGAGGCT,0.998
20,TAACGATCAA,1.05
21,TAACGCGCGG,1
22,TAACGGCTAA,0.994
23,TAACGGGTT,0.996
24,TAACGTACAG,1.67
25,TAACTCAATT,1
26,TAACTGATTT,1.03

row,Sequence,switch fluorescence ratio
1,TAACTGCGTC,0.99
2,TAACTGGGGA,1.02
3,TAACTGTGGT,0.969
4,TAACTTGGGG,0.967
5,TAACTTTAAT,0.976
6,TAAGAATCGA,0.971
7,TAAGACACCA,1.07
8,TAAGACATCT,0.975
9,TAAGACGCGA,0.984
10,TAAGACGTGT,0.936
11,TAAGAGGAAT,0.967
12,TAAGAGTTAG,0.947
13,TAAGATCAAT,1.16
14,TAAGATCCA,0.987
15,TAAGATCGGG,0.965
16,TAAGATTAAG,0.982
17,TAAGATTCGC,0.923
18,TAAGCAAAAA,1.09
19,TAAGCAAGGT,1.61
20,TAAGCACAAA,1.21
21,TAAGCAGCTG,1.01
22,TAAGCATCTG,0.999
23,TAAGCCATTT,1
24,TAAGCGAATT,1.25
25,TAAGCTACCT,1.24
26,TAAGCTCACC,1.13

row,Sequence,switch fluorescence ratio
1,TAAGGACAGA,0.975
2,TAAGGAGG,1.01
3,TAAGGATTAG,1.02
4,TAAGGCTAAC,1.03
5,TAAGGGCGTG,1.03
6,TAAGGGTAC,1.01
7,TAAGGTGTTA,1.12
8,TAAGGTTGTT,0.998
9,TAAGTAGAGC,1.06
10,TAAGTAGC,1.02
11,TAAGTATAGA,0.996
12,TAAGTCTCCA,1.02
13,TAAGTGACTT,1.01
14,TAAGTGATTG,0.986
15,TAAGTGTATA,1.01
16,TAAGTGTTAA,1.01
17,TAAGTTACGA,1.11
18,TAAGTTGCGC,0.989
19,TAAGTTTAAA,0.956
20,TAATAAAAGA,0.995
21,TAATAACATA,0.997
22,TAATAAGCTA,1.02
23,TAATACCGGA,1.04
24,TAATACTGC,1.05
25,TAATAGATGT,1.02
26,TAATAGCTGC,1.02

row,Sequence,switch fluorescence ratio
1,TAATAGGCGC,1.01
2,TAATAGGGA,1.01
3,TAATAGGTGC,1.09
4,TAATAGTCAG,1.02
5,TAATAGTTCA,1.02
6,TAATATAATA,0.976
7,TAATATGAA,0.981
8,TAATATGC,0.967
9,TAATATTAGT,0.987
10,TAATCAACTG,1.11
11,TAATCCATGA,1.03
12,TAATCCCACG,1.05
13,TAATCCGGGA,1.03
14,TAATCCTTGG,1
15,TAATCGGGTC,1.01
16,TAATCGGTTA,0.969
17,TAATCGTGGC,0.986
18,TAATCTATTA,1.02
19,TAATCTGGCA,0.977
20,TAATGATTC,1.05
21,TAATGGGTAC,1
22,TAATGGTGTC,0.994
23,TAATGGTTAC,1.03
24,TAATGTATGG,0.998
25,TAATGTCCGT,1.08
26,TAATGTCTA,0.995

row,Sequence,switch fluorescence ratio
1,TAATGTTGGC,0.958
2,TAATTACTAC,1.11
3,TAATTAGC,0.99
4,TAATTATATA,0.975
5,TAATTCAACG,0.989
6,TAATTCGTAA,1.08
7,TAATTGAGTG,0.978
8,TAATTGCAT,1.04
9,TAATTGCG,1.02
10,TAATTGTG,0.944
11,TAATTTAAAC,0.988
12,TAATTTACGC,1.07
13,TAATTTCGCG,0.971
14,TACAAACAGC,1.01
15,TACAACCGTT,1.01
16,TACAAGTTGC,1.37
17,TACAATGATA,0.999
18,TACAATGTTA,1.03
19,TACACAGCCT,1.08
20,TACACCGAGT,1.06
21,TACACGCTTT,0.992
22,TACACGTTCG,1.1
23,TACACTATC,1.07
24,TACACTCAAT,1.04
25,TACACTTTCT,1.02
26,TACAGAATAT,0.993

row,Sequence,switch fluorescence ratio
1,TACAGACTTG,1.03
2,TACAGAGAGA,1
3,TACAGATGGT,1.02
4,TACAGCTAGC,0.967
5,TACAGCTCAA,0.99
6,TACAGGCATC,1.06
7,TACAGTCTGC,1.03
8,TACAGTGCTG,1.01
9,TACAGTTACT,1.19
10,TACAGTTTTT,0.958
11,TACATACGT,1.34
12,TACATACTTG,1.2
13,TACATATATC,1.09
14,TACATATCGT,1.04
15,TACATATGAG,1.05
16,TACATCACAA,1.33
17,TACATCAGTA,1.02
18,TACATTGACC,1.14
19,TACATTGATC,1.04
20,TACATTGTC,0.883
21,TACATTTGGT,1.01
22,TACCAAATTA,1.02
23,TACCACGATT,1.06
24,TACCACTAGA,1
25,TACCCATACT,1.2
26,TACCCCATGC,1.18

row,Sequence,switch fluorescence ratio
1,TACCCTAGTC,1.07
2,TACCGAGCTA,1.48
3,TACCGGAGGC,0.972
4,TACCGGGATG,1.03
5,TACCGGTGTT,1.04
6,TACCGTGACG,1.15
7,TACCGTTGCT,1.02
8,TACCTAGACT,1.08
9,TACCTGGTTG,0.986
10,TACCTTGACA,1.09
11,TACCTTGAGG,1.02
12,TACGAAATT,1.01
13,TACGACTAGA,1.08
14,TACGAGCGCA,1.57
15,TACGAGTGCT,0.982
16,TACGATGGAC,1.14
17,TACGATTATC,1.12
18,TACGATTGTT,1
19,TACGCAGACT,1.82
